Measured values published in the RNAGym collection of RNA variant scans (doi:10.7554/elife.90254).
Read counts are not given, so values of variants with three or more changes are uncertain.

B1: OR4K15 (parent)
chain: GUUAACGGUCAUAGGCCAUGGAAACUAGGAGCACCAUUUCGCUGCCAGUGAAGAAAUGAACAAAGAAAAUCUGGGCCAGGCAGGCAUCAAAAGAAAUAGUCUUGCGCUCAACCAGAAAGUCUGUAAUCAUUUUAAGGGUA

Variants of: B1
Assay: self-cleavage, relative activity (ratio to wild type); higher = more cleavage; in vitro, sequencing; the parent is a self-cleaving ribozyme

Variant	self-cleavage
U9C A117G A118G U139A	1.53
U9C U49A A94G	1.48
U9A A11G A92G	1.42
U9C A98G A118G	0.53
U9C U12C C35U A118G U120C	0.15
U9C A60G A86G G119A U130A	2.21
G8A U38C A54G	2.37
U9C A118G G136A U139C	1.67
U9C A11G A30U A54U A67G C128U	1.45
U9A A11U A126G	0.77
U9A A47U A51G A56C A63G A90G	0.41
U9A A56G U57C	0.49
U9C U12C U43A A68G U87C A117G	1.58
U9C U49C U72C A94G	0.34
G7U U26A A67G	1.51
U9A A22G U38C A82G A116G A126G	0.09
U9A A11G A82G U87C A111G A114U	0.03
U9C C45G A63U A78G	0.32
U9C A36G A92G	1.29
U9A U26C A96G A126G U131C	1.61
U9C U38A A56G	1.61
U9C A22G A51G	1.24
U9A A23U A98G U100C U139C	1.28
U9C A64G A92G U97C	1.43

Variant	self-cleavage
U9C U38C U127C	1.06
U9C A11U U26G U37C A96G C101U	0.44
U9C A91U A110G U131C	0.07
U9C C40U U43C A56G A64G U103A	0.65
U9C A24G A52G A118G	0.53
U9A U39A U132C	1.02
U9C A30G A59G	0.99
G8A A11G A66U	1.58
U9A U72C A111G	0.05
G8A A11U A59G U87C G104A A125G	0.01
U9C G74U U120C	0.09
U9C U70C A82G A95G A111U	0.09
U9C A30G A82G U97C U120C A135G	0.19
U9C A33G U139C	1.31
U9A A30G U37A U103A A111U U127A U132C	0.07
U9C A67C U132C	2.79
U9C A63G U108C	0.02
U9C A23G A33G A63G U124G	0.21
U9C A91G A96G A134G	1.81
U9C U49A G83A	1.09
U9C U12C A89G U100C	0.92
U9C A86G A117G U124C	0.67
U9C A18G U132C	1.06
U9C A89G A94G	1.2

Variant	self-cleavage
U9C A64G A82G A92G A111G	0.05
U9C A89G U102C	2.62
U9C A111G A140G	0.03
U9C A52G A69G A111G	0.04
U9C A60G A66G A94G U108A	0.03
G8U A67G A96G	1.88
U9A A98G C121U	0.69
U9C U39C A55G U87C A96G	0.38
U9C A22G U87C A92U	0.83
U9C C46U U87C	2.12
U9A A23U C32U A94G	1.02
U9C A11G A18U A59G A110G A111G	0.19
U9C U72A A110G	0.06
U9C C35U U100C	1.86
G7U U26A A66G U132C	0.77
U9A A18G U38C A135G	0.5
U9C U39C A78G A118G	0
U9C A52G A60G A111G	0.09
G8A U39C A63G	2.06
U9A A11G A78U	0.26
U9A A11C A62G A118G	1.99
U9A A63G A64G U97C U100C	2.25
U9C A56G A82G	0.36
U9C U12A A62G U102A U130C	1.03

Variant	self-cleavage
U9C A56G A140G	1.06
U9A A117U U133A	1.51
G8C A22U A94G U100C	2.52
U9C A23U U37C A110G U131C	0.13
G8A A11U U122C	0.99
U9A A18U A24U A36G A118U	1.32
U9C U39A A62G A68G	1.42
U9C A66G A95G	2.2
U9C U39C A54G A59G U87C A129U	0.8
U9C U49C U70C	1.68
U9A U72C A94G U122A A135G	0.27
G8A U19C U39C A90G A91G	0.49
U9C U26C A36G U130C	0.91
G7U U120C U124C	0.41
U9A A92G A117U	1.02
U9C A68G A78G A94G A118G	0.11
U9C A22C A33G U57C	0.52
G8U U9C A114C	0.02
U9C A60C U130C	1.91
G8A U9C A64G A135G	0.87
U9C A66G A82G	0.69
U9C A11G U43A	1.66
U9C G20A U70A	1.82
U9A U38C A89U U124C	1.03

Variant	self-cleavage
U9A G58U U120C	0.77
U9C U12A A64G A78G A91G	0.21
U9A U19C A30G U87A A125U	1.77
U9C A23G A96U	1.38
U9C A78G C81G A90G	0.17
U9C G84A U127C U130C	1.98
U9C U49C U100A U122C	0.53
U9C A18U C61U A95G	1.52
U9C A33G U72C A110G A116G	0.06
U9C A22G A36U A86U	1.35
U9A A18U A23U U39C A92G	1.3
U9C A55G A68G A89G	1.06
U9C A33G A36G U38C	1.62
U9C A13G A36G A98G	0.59
U9C U26C G74A	0.38
U9C A55G A59G U120C	1.65
U9C A33U A60G A63G U72C A117G U120A	0.21
U9C A30U C45A A78G U120C A140G	0.09
U9C A52G A55G U70C A82U A110G	0.2
G8A A52G G73A A114G A126G	0.02
U9C G21A A52U	1.91
U9C U43A A129G	2.05
U9C A63G A69U A114U	0.14
G8U U26C G58A A96G U102C U132C	1.12

Variant	self-cleavage
U9C A11U U38G A140G	1.1
U9C C17A A82G	0.28
U9A G29C U87C	0.98
U9C A23G U49C	0.83
G8A A47G A62G A96G A110G	0.25
U9C A51G A92G U100C	2.01
U9C U39C U87C A118G	0.96
U9A A51U U57C A69G A90G A110U A118U	0.07
U9C A82G A95U A110G	0.05
U9A A13G A23G U43C U72C	0.57
U9C A91G U103C	0.28
U9C A59G A68C	1.59
U9C A24C A78G U97G A111G	0.07
U9C U43A A64G G104A	0.1
U9C A23G A24G A129G	0.76
U9C U39C A52G A62G A82G	0.65
U9A A59G U132A A140G	1.37
U9C A13G A64G A78U A118U	0.31
U9A U26C U37C	1.33
U9C U49C U122C	0
U9A U12C U43C A86C A117G	0.84
U9A U26C U49A A59G A60G G75A U122C	0.12
U9C A68G A98G U130C	0.34
U9C A47U U57C A68U A98U	1.23

Variant	self-cleavage
U9C U37C A62G A89G A96C	1.59
U9C A59U U103C	0.98
U9C C16U A51U A89G U127C	0.99
U9A A110G U122C	0.09
U9A U43A A64U U100C	1.79
U9A U49A A111G	0.03
U9C A22G C128U	1.09
U9C A52G A91G A126G	0.92
U9C A96G A118G	1.88
U9C A23U U87C U108C	0.02
U9C A56G A90G	1.1
U9C U130C A135G	1.25
U9C A51G A118G U130C U133C	0.4
U9A A51G U122A	0.81
U9C A95G U108A	0
U9C U38C A64G C76U	0.12
U9C A22G U102C	0.71
U9C U97C A126G	0.88
U9C A63G A69G	0
U9C U19C A23C A69G U103C U132C	0.63
U9C G53C U127C	0.82
U9C A129G A135G	0.86
G8A A54G U100A	1.14
